# In the supplement of paper PMC8728848:
# The list shows a part of the results.
# Columns and labels:
# Assay in all cases: glycan array binding signal (z-score within array); higher = stronger binding
# Settings in all cases: glycan notation: IUPAC condensed, linker removed
# [1] = target: Neu5Ac(a2-3)Gal(b1-4)GlcNAc(b1-3)Gal
# Procedure, shortened: (§1)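 The binding signal is a Z-score computed within each array and averaged over linkers. Arrays of the same protein sequence at different concentrations or buffers were also averaged together. Data originate from 3228 arrays in the Consortium for Functional Glycomics database, kept only where the protein sequence was available.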
# [2] = target: Neu5Ac(a2-3)Gal(b1-4)GlcNAc(b1-3)Gal(b1-3)GlcNAc
# Procedure, shortened: as §1
# [3] = target: Neu5Ac(a2-3)Gal(b1-4)GlcNAc(b1-3)Gal(b1-4)GlcNAc
# Procedure, shortened: as §1
# [4] = target: Neu5Ac(a2-3)Gal(b1-4)GlcNAc(b1-3)Gal(b1-4)GlcNAc(b1-2)Man(a1-3)[Neu5Ac(a2-3)Gal(b1-4)GlcNAc(b1-3)Gal(b1-4)GlcNAc(b1-2)Man(a1-6)]Man(b1-4)GlcNAc(b1-4)GlcNAc
# Procedure, shortened: as §1
# [5] = target: Neu5Ac(a2-3)Gal(b1-4)GlcNAc(b1-3)Gal(b1-4)GlcNAc(b1-3)Gal(b1-4)GlcNAc
# Procedure, shortened: as §1
# [6] = target: Neu5Ac(a2-3)Gal(b1-4)GlcNAc(b1-3)Gal(b1-4)GlcNAc(b1-3)Gal(b1-4)GlcNAc(b1-2)Man(a1-3)[Neu5Ac(a2-3)Gal(b1-4)GlcNAc(b1-3)Gal(b1-4)GlcNAc(b1-3)Gal(b1-4)GlcNAc(b1-2)Man(a1-6)]GalNAc
# Procedure, shortened: as §1
# [7] = target: Neu5Ac(a2-3)Gal(b1-4)GlcNAc(b1-3)Gal(b1-4)GlcNAc(b1-3)GalNAc
# Procedure, shortened: as §1
# [8] = target: Neu5Ac(a2-3)Gal(b1-4)GlcNAc(b1-3)Gal(b1-4)GlcNAc(b1-3)[Neu5Ac(a2-3)Gal(b1-4)GlcNAc(b1-3)Gal(b1-4)GlcNAc(b1-6)]GalNAc
# Procedure, shortened: as §1
# [9] = target: Neu5Ac(a2-3)Gal(b1-4)GlcNAc(b1-3)Gal(b1-4)GlcNAc(b1-6)[Gal(b1-3)]GalNAc
# Procedure, shortened: as §1
# [10] = target: Neu5Ac(a2-3)Gal(b1-4)GlcNAc(b1-3)Gal(b1-4)[Fuc(a1-3)]GlcNAc
# Procedure, shortened: as §1
# [11] = target: Neu5Ac(a2-3)Gal(b1-4)GlcNAc(b1-3)GalNAc
# Procedure, shortened: as §1
# [12] = target: Neu5Ac(a2-3)Gal(b1-4)GlcNAc(b1-3)[Neu5Ac(a2-3)Gal(b1-4)GlcNAc(b1-6)]GalNAc
# Procedure, shortened: as §1
# [13] = target: Neu5Ac(a2-3)Gal(b1-4)GlcNAc(b1-6)GalNAc
# Procedure, shortened: as §1
# [14] = target: Neu5Ac(a2-3)Gal(b1-4)GlcNAc(b1-6)[Gal(b1-3)]GalNAc
# Procedure, shortened: as §1
# [15] = target: Neu5Ac(a2-3)Gal(b1-4)GlcNAc(b1-6)[Neu5Ac(a2-3)Gal(b1-3)]GalNAc
# Procedure, shortened: as §1
# [16] = target: Neu5Ac(a2-3)Gal(b1-4)GlcNAc6S
# Procedure, shortened: as §1
# [17] = target: Neu5Ac(a2-3)Gal(b1-4)[Fuc(a1-3)]GlcNAc
# Procedure, shortened: as §1
# [18] = target: Neu5Ac(a2-3)Gal(b1-4)[Fuc(a1-3)]GlcNAc(b1-2)Man
# Procedure, shortened: as §1
# [19] = target: Neu5Ac(a2-3)Gal(b1-4)[Fuc(a1-3)]GlcNAc(b1-3)Gal
# Procedure, shortened: as §1
# [20] = target: Neu5Ac(a2-3)Gal(b1-4)[Fuc(a1-3)]GlcNAc(b1-3)Gal(b1-4)GlcNAc
# Procedure, shortened: as §1
# [21] = target: Neu5Ac(a2-3)Gal(b1-4)[Fuc(a1-3)]GlcNAc(b1-3)Gal(b1-4)[Fuc(a1-3)]GlcNAc(b1-3)Gal(b1-4)[Fuc(a1-3)]GlcNAc
# Procedure, shortened: as §1
# [22] = target: Neu5Ac(a2-3)Gal(b1-4)[Fuc(a1-3)]GlcNAc(b1-3)GalNAc
# Procedure, shortened: as §1
# [23] = target: Neu5Ac(a2-3)Gal(b1-4)[Fuc(a1-3)]GlcNAc(b1-6)[Gal(b1-3)]GalNAc
# Procedure, shortened: as §1
# [24] = target: Neu5Ac(a2-3)Gal(b1-4)[Fuc(a1-3)]GlcNAc(b1-6)[Neu5Ac(a2-3)Gal(b1-3)]GalNAc
# Procedure, shortened: as §1
# [25] = target: Neu5Ac(a2-3)Gal(b1-4)[Fuc(a1-3)]GlcNAc6S
# Procedure, shortened: as §1
# [26] = target: Neu5Ac(a2-3)Gal6S(b1-4)GlcNAc
# Procedure, shortened: as §1
# [27] = target: Neu5Ac(a2-3)Gal6S(b1-4)[Fuc(a1-3)]GlcNAc
# Procedure, shortened: as §1
# Neu5Ac(a2-3)GalNAc = target: Neu5Ac(a2-3)GalNAc
# Procedure, shortened: as §1
# [28] = target: Neu5Ac(a2-3)GalNAc(b1-4)GlcNAc
# Procedure, shortened: as §1
# [29] = target: Neu5Ac(a2-3)[GalNAc(b1-4)]Gal(b1-4)Glc
# Procedure, shortened: as §1
# [30] = target: Neu5Ac(a2-3)[GalNAc(b1-4)]Gal(b1-4)GlcNAc
# Procedure, shortened: as §1
# [31] = target: Neu5Ac(a2-3)[GalNAc(b1-4)]Gal(b1-4)GlcNAc(b1-3)GalNAc
# Procedure, shortened: as §1
# [32] = target: Neu5Ac(a2-3)[Neu5Ac(a2-6)]GalNAc
# Procedure, shortened: as §1
# Neu5Ac(a2-6)Gal = target: Neu5Ac(a2-6)Gal
# Procedure, shortened: as §1
# [33] = target: Neu5Ac(a2-6)Gal(b1-3)GlcNAc(b1-3)[Gal(b1-4)GlcNAc(b1-6)]Gal(b1-4)Glc
# Procedure, shortened: as §1
# Neu5Ac(a2-6)Gal(b1-4)Glc = target: Neu5Ac(a2-6)Gal(b1-4)Glc
# Procedure, shortened: as §1
# [34] = target: Neu5Ac(a2-6)Gal(b1-4)GlcNAc
# Procedure, shortened: as §1
# [35] = target: Neu5Ac(a2-6)Gal(b1-4)GlcNAc(b1-2)Man
# Procedure, shortened: as §1
# [36] = target: Neu5Ac(a2-6)Gal(b1-4)GlcNAc(b1-2)Man(a1-3)Man(b1-4)GlcNAc(b1-4)GlcNAc
# Procedure, shortened: as §1
# [37] = target: Neu5Ac(a2-6)Gal(b1-4)GlcNAc(b1-2)Man(a1-3)[Gal(b1-4)GlcNAc(b1-2)Man(a1-6)]Man(b1-4)GlcNAc(b1-4)GlcNAc
# Procedure, shortened: as §1
# [38] = target: Neu5Ac(a2-6)Gal(b1-4)GlcNAc(b1-2)Man(a1-3)[GlcNAc(b1-2)Man(a1-6)]Man(b1-4)GlcNAc(b1-4)GlcNAc
# Procedure, shortened: as §1
# [39] = target: Neu5Ac(a2-6)Gal(b1-4)GlcNAc(b1-2)Man(a1-3)[GlcNAc(b1-4)][Neu5Ac(a2-6)Gal(b1-4)GlcNAc(b1-2)Man(a1-6)]Man(b1-4)GlcNAc(b1-4)GlcNAc
# Procedure, shortened: as §1
# [40] = target: Neu5Ac(a2-6)Gal(b1-4)GlcNAc(b1-2)Man(a1-3)[Man(a1-6)]Man(b1-4)GlcNAc(b1-4)GlcNAc
# Procedure, shortened: as §1
# [41] = target: Neu5Ac(a2-6)Gal(b1-4)GlcNAc(b1-2)Man(a1-3)[Neu5Ac(a2-3)Gal(b1-4)GlcNAc(b1-2)Man(a1-6)]Man(b1-4)GlcNAc(b1-4)GlcNAc
# Procedure, shortened: as §1
# [42] = target: Neu5Ac(a2-6)Gal(b1-4)GlcNAc(b1-2)Man(a1-3)[Neu5Ac(a2-6)Gal(b1-4)GlcNAc(b1-2)Man(a1-6)]Man(b1-4)GlcNAc(b1-4)GlcNAc
# Procedure, shortened: as §1
# [43] = target: Neu5Ac(a2-6)Gal(b1-4)GlcNAc(b1-2)Man(a1-3)[Neu5Ac(a2-6)Gal(b1-4)GlcNAc(b1-2)Man(a1-6)]Man(b1-4)GlcNAc(b1-4)[Fuc(a1-6)]GlcNAc
# Procedure, shortened: as §1
# [44] = target: Neu5Ac(a2-6)Gal(b1-4)GlcNAc(b1-2)Man(a1-6)Man(b1-4)GlcNAc(b1-4)GlcNAc
# Procedure, shortened: as §1
# [45] = target: Neu5Ac(a2-6)Gal(b1-4)GlcNAc(b1-2)Man(a1-6)[Gal(b1-4)GlcNAc(b1-2)Man(a1-3)]Man(b1-4)GlcNAc(b1-4)GlcNAc
# Procedure, shortened: as §1
# [46] = target: Neu5Ac(a2-6)Gal(b1-4)GlcNAc(b1-2)Man(a1-6)[GlcNAc(b1-2)Man(a1-3)]Man(b1-4)GlcNAc(b1-4)GlcNAc
# Procedure, shortened: as §1
# [47] = target: Neu5Ac(a2-6)Gal(b1-4)GlcNAc(b1-2)Man(a1-6)[Man(a1-3)]Man(b1-4)GlcNAc(b1-4)GlcNAc
# Procedure, shortened: as §1
# [48] = target: Neu5Ac(a2-6)Gal(b1-4)GlcNAc(b1-2)[Neu5Ac(a2-6)Gal(b1-4)GlcNAc(b1-4)]Man(a1-3)[GlcNAc(b1-4)][Neu5Ac(a2-6)Gal(b1-4)GlcNAc(b1-2)[Neu5Ac(a2-6)Gal(b1-4)GlcNAc(b1-6)]Man(a1-6)]Man(b1-4)GlcNAc(b1-4)GlcNAc
# Procedure, shortened: as §1
# [49] = target: Neu5Ac(a2-6)Gal(b1-4)GlcNAc(b1-2)[Neu5Ac(a2-6)Gal(b1-4)GlcNAc(b1-4)]Man(a1-3)[GlcNAc(b1-4)][Neu5Ac(a2-6)Gal(b1-4)GlcNAc(b1-4)Man(a1-6)]Man(b1-4)GlcNAc(b1-4)GlcNAc
# Procedure, shortened: as §1
binder,measurement,setting,value
"BDCA-2 (Homo sapiens), Q8WTT0 (protein) MVPEEEPQDREKGLWWFQLKVWSMAVVSILLLSVCFTVSSVVPHNFMYSKTVKRLSKLREYQQYHPSLTCVMEGKDIEDWSCCPTPWTSFQSSCYFISTGMQSWTKSQKNCSVMGADLVVINTREEQDFIIQNLKRNSSYFLGLSDPGGRRHWQWVDQTPYNENVTFWHSGEPNNLDERCAIINFRSSEEWGWNDIHCHVPQKSICKMKKIYI",glycan array binding signal (z-score),[1],-0.192
same,glycan array binding signal (z-score),[2],-0.175
same,glycan array binding signal (z-score),[3],-0.019
same,glycan array binding signal (z-score),[4],-0.162
same,glycan array binding signal (z-score),[5],-0.295
same,glycan array binding signal (z-score),[6],-0.131
same,glycan array binding signal (z-score),[7],-0.175
same,glycan array binding signal (z-score),[8],-0.179
same,glycan array binding signal (z-score),[9],-0.188
same,glycan array binding signal (z-score),[10],-0.186
same,glycan array binding signal (z-score),[11],-0.156
same,glycan array binding signal (z-score),[12],-0.18
same,glycan array binding signal (z-score),[13],-0.184
same,glycan array binding signal (z-score),[14],-0.148
same,glycan array binding signal (z-score),[15],-0.163
same,glycan array binding signal (z-score),[16],-0.021
same,glycan array binding signal (z-score),[17],0.055
same,glycan array binding signal (z-score),[18],-0.175
same,glycan array binding signal (z-score),[19],-0.161
same,glycan array binding signal (z-score),[20],-0.014
same,glycan array binding signal (z-score),[21],-0.193
same,glycan array binding signal (z-score),[22],-0.174
same,glycan array binding signal (z-score),[23],-0.151
same,glycan array binding signal (z-score),[24],-0.181
same,glycan array binding signal (z-score),[25],0.015
same,glycan array binding signal (z-score),[26],-0.077
same,glycan array binding signal (z-score),[27],-0.105
same,glycan array binding signal (z-score),Neu5Ac(a2-3)GalNAc,-0.208
same,glycan array binding signal (z-score),[28],-0.249
same,glycan array binding signal (z-score),[29],-0.247
same,glycan array binding signal (z-score),[30],-0.241
same,glycan array binding signal (z-score),[31],-0.141
same,glycan array binding signal (z-score),[32],-0.244
same,glycan array binding signal (z-score),Neu5Ac(a2-6)Gal,-0.173
same,glycan array binding signal (z-score),[33],-0.181
same,glycan array binding signal (z-score),Neu5Ac(a2-6)Gal(b1-4)Glc,-0.252
same,glycan array binding signal (z-score),[34],-0.282
same,glycan array binding signal (z-score),[35],-0.15
same,glycan array binding signal (z-score),[36],-0.162
same,glycan array binding signal (z-score),[37],1.09
same,glycan array binding signal (z-score),[38],-0.185
same,glycan array binding signal (z-score),[39],-0.177
same,glycan array binding signal (z-score),[40],-0.117
same,glycan array binding signal (z-score),[41],-0.156
same,glycan array binding signal (z-score),[42],-0.099
same,glycan array binding signal (z-score),[43],-0.158
same,glycan array binding signal (z-score),[44],-0.16
same,glycan array binding signal (z-score),[45],11.8
same,glycan array binding signal (z-score),[46],-0.009
same,glycan array binding signal (z-score),[47],-0.146
same,glycan array binding signal (z-score),[48],-0.166
same,glycan array binding signal (z-score),[49],-0.116
